Measured values as given in the supplement of paper PMC3334620.
In all, about 33,000 sequences were measured (“E-score (-0.5 to 0.5)”: median about -0.035, highest 2% from about 0.35 on). The list shows a part of the results.

These sequences were tested against T1, Pdr3 (UniProt P33200) (assay: PBM E-score (8-mer binding enrichment) (E-score (-0.5 to 0.5)); higher = stronger / more preferred TF binding; most listed sequences are background and not binding sites). Conditions: protein concentration: 200 nM; construct: GST-full length.
T1 sequence: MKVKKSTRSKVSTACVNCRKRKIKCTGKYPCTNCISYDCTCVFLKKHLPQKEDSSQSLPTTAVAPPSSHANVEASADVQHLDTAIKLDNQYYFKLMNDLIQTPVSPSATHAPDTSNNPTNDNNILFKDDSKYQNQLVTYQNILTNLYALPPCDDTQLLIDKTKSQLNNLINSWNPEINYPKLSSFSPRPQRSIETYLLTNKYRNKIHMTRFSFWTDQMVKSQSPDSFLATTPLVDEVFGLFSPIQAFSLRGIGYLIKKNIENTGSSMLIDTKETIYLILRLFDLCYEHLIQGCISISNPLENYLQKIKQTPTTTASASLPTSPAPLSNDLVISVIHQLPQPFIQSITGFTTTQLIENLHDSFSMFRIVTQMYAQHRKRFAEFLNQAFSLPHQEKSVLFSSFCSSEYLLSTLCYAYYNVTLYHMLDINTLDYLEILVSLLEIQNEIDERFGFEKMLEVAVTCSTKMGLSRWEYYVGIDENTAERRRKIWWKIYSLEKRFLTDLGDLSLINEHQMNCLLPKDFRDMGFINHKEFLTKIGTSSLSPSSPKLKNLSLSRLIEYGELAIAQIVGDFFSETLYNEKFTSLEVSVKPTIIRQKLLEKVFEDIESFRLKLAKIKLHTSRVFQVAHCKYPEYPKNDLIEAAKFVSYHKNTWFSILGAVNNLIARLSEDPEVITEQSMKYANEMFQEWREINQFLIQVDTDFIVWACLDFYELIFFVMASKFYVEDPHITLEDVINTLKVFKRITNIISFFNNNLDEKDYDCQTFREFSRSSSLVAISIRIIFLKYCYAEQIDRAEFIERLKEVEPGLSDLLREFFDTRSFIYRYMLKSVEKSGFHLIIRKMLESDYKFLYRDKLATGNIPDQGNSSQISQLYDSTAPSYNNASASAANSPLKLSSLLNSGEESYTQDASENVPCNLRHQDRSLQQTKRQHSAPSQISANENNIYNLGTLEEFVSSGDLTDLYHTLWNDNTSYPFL
Summary of the method: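 GST-tagged yeast TFs (full-length or DNA-binding domain) were made by PURExpress in vitro transcription/translation and applied at about 100-200 nM to universal all-10-mer Agilent arrays. The arrays were made double-stranded by primer extension, on fresh or once-stripped slides. Bound protein was detected with fluorescent anti-GST, and scans were normalised with masliner. Each ungapped eight-base word, pooled with its reverse complement, received an E-score (modified Wilcoxon-Mann-Whitney statistic) from the Universal PBM Analysis Suite.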

Sequence	PBM E-score
CGGATTTC	0.283
TCAGGGGA	-0.0352
AAATCTCG	0.125
AGTCCCAT	-0.136
TCTGTCCA	0.0987
GGTTCGAA	0.0679
CAGTGAGG	-0.309
CCTCTCAA	0.0885
CCCCGCAA	0.198
CCACCTTC	-0.19
CGCGGCCA	0.296
GTAGCTTA	-0.0826
CATCCTCC	-0.139
AGAACTTG	-0.226
AATGGCTG	-0.0728
AAGCCAGC	-0.092
CTTCTATC	-0.0244
CCGGCCTA	0.184
CAACCCTA	-0.234
ATAGTCGC	-0.0229
ATGTGAGA	-0.0881
CGTGGCTC	-0.134
ATTACTCG	0.0715
ATACTGTG	-0.0652
ATCATTAC	0.0179

Sequence	PBM E-score
CCGCATTC	0.192
ACCACTCA	-0.0827
CCTCGCCC	-0.00414
ACGGGGCT	-0.0607
CTAATCAG	-0.0177
GTTGATTA	0.0474
CAGCACAA	0.00828
ACAAGAAC	0.123
CCGCCATC	0.0607
TATCTACA	-0.0547
GAGGTAAC	0.106
CACAATGG	0.0941
CATCATTA	0.195
TTATATAA	0.176
GAGCATGC	-0.0163
AGCGGCGG	0.335
AGCATATA	0.0856
CGCCCCAG	0.0925
CCTTGATC	0.033
ACATGAAG	-0.0477
CCAACTGC	0.0661
ACAGCGGA	0.298
AAGCGGGA	0.198
CACCGAGA	0.00833
AACCGCAC	0.0403

Sequence	PBM E-score
CTCTACAA	-0.134
GGGTCAGA	-0.145
AGATACAA	-0.00158
GATTAGAC	-0.154
GCACATGC	-0.0153
GGTGCTAC	-0.148
CCGGATTA	0.385
AGCGGACC	0.175
CTGTCGCA	-0.0708
ATAACGGC	0.135
ATTGCTTA	-0.122
ACCAGAAT	-0.0736
CATAAACG	-0.0208
ACACATCG	-0.245
GGCGTCAA	-0.0443
ATTTTGTG	0.0339
ACCCGCAT	0.196
CCACAGCG	-0.0122
GCCCGCCA	0.163
CAGCTTAG	-0.161
ATTTGCAC	-0.0996
ATACTCAC	-0.141
CGTACATC	-0.0165
ATGAGGGG	-0.161
GAGTAAGC	-0.116

Sequence	PBM E-score
CCTACGGA	0.239
GCCGTTTA	0.0844
CGTTTGTA	-0.0104
GAAGTGGC	0.0291
ATGTTCAC	-0.034
AGGCGCTG	0.0991
CCGACATC	0.15
CTCTTCAG	-0.243
CATGCTCC	-0.0366
AGTGCGGG	0.185
AGAACAGA	0.00211
CTTTTGAC	-0.222
CGACCAAG	-0.138
TGGAAAAA	0.0433
AGTACTAG	-0.0196
TATCCGCA	0.335
GAGAATCA	-0.0676
ATTCCAGA	0.0594
CATGGGGA	-0.121
GATGTCAA	-0.133
TATATATA	0.334
ATGCATGG	0.159
AGGGAATA	0.12
CGTTATTA	0.128
ACAAGGAC	-0.214

Sequence	PBM E-score
CTCGTCTC	0.00964
AGACCTCC	-0.0942
ACGTACGC	-0.331
CAAGCATC	-0.0853
ATCTGGTA	-0.0522
GTAAGTTA	-0.0961
ATTATGAC	-0.0247
CGGGACCC	0.339
CTTGAGGA	-0.0818
CTTTGTTA	-0.0164
CACGCTCG	-0.0963
AGCGCCCC	0.0307
ACCCGTCA	0.146
AGTGCAAA	0.019
GTGAGCAC	-0.135
CAGGTGCA	0.0121
CAACATAA	0.0957
CAAATCGG	0.257
AATGGGAC	-0.15
CACGATCG	0.068
GTCGTCCA	-0.0251
ACATATGA	-0.107
AGGGTTAG	-0.221
CGGACTCC	0.329
AAGACCGG	0.0295

Sequence	PBM E-score
CCTCAGGC	-0.0418
CGATAAAA	0.0668
ACCCTTAC	-0.202
AACCTTGC	-0.117
CTTTCAAC	-0.118
AAATACAC	-0.0617
CAACTGCA	-0.0308
CACGTCTG	-0.0891
CAGCTAGG	-0.228
ACGTCACA	-0.134
CGATATAG	0.0721
CGGTGAAC	0.0516
GGGCGACC	0.0233
GCGGAACA	0.474
AACCTAAA	-0.0113
AGATGATA	0.1
AGGTACGA	-0.0844
GAAGCCAC	-0.00782
AAACAGCT	-0.0116
GAAGCAGA	-0.165
GATGAATA	0.13
CACACTTC	0.0829
CATTGCCG	0.118
AGTAGACA	-0.115
CCCGTCAA	0.125

Sequence	PBM E-score
CCTTGACA	-0.209
CTTTTTGA	-0.207
ACATATCT	0.0252
ACTTAGCC	-0.18
CGCTGTTA	-0.112
AATGTGTG	0.0121
AGTGGGTG	0.125
AACCCTGG	-0.182
ATTGTGTA	-0.0751
AGAGTCAG	-0.136
AGCAGGAG	-0.0581
GTGTCGAA	-0.147
AACAAAGG	0.0254
CCGACTTA	0.247
CCACCACA	-0.00907
CTATTCCC	0.0883
ATTGGGAA	-0.0305
TGCTTTAA	-0.0637
GACGTTCA	-0.166
GCGGCCCA	0.167
CTACATTC	-0.136
GGAAAACC	0.182
